From the supplement of paper PMC10126150
Values marked as one replicate rest on one cluster of the flow cell; about a third of the high ones do not repeat.

System: ATP
Assay: switch fluorescence ratio, 500 uM ATP over buffer (Cy3 cluster intensity, sum of 5 cycles each) (fold (ratio)); higher = stronger signal-on switching upon ATP binding; sequences stand for … in TCGTCGGCAGCGTCAGATGTGTATAAGAGACAGTTTTTTTTTTTTTTTTTTTTTTTTT…TC
Settings: aptamer strand: ATP DNA aptamer (quencher-CACCTGGGGGAGTATTGCGGAGGAAGG + anchor), 100 nM annealed; ATP concentration: 500 uM; one replicate
Summary of the method: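 Clusters carrying Cy3-labelled switching strands on a modified Illumina MiSeq flow-cell were annealed to 100 nM quencher-labelled ATP aptamer and imaged in selection buffer. They were imaged again after 15 min with 500 uM ATP at 22 °C, over five buffer/ATP cycles with NaOH stripping and re-annealing in between. For each cluster, the fluorescence ratio is the summed Cy3 intensity of the target cycles divided by that of the buffer cycles, averaged per switch-domain sequence. Clusters outside 100-1000 RFU were left out.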
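Note: ATP exposure 15 min at 22 °C before imaging.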

Sequence | switch fluorescence ratio
AGCGCACCGG | 1.02
ACTATTCAAG | 1.02
ACGACTAGTT | 1.02
AGGCTCCCGA | 0.973
CGGTCGGTTC | 1.01
CCAACCTCTG | 1.04
AACTATCTAT | 1.05
CTGTGACAAG | 0.965
GGCAGCCT | 1.03
CTATATGGTT | 0.989
ACCGGAAAAA | 1.12
TTGGTTAT | 0.979
AGCGGTAATT | 0.997
CCTTAATTCA | 0.979
AAAGGGTACG | 1.01
GGTCTGGAGT | 1.01
AATAGCACT | 1.03
ACTGGGCTTA | 0.98
CGTCGTCTTT | 1.04
CGCCTCTATC | 1.04
CTGCCTGGTA | 0.989
GATAACGGCT | 0.874
CACGATTCTG | 1.04
GAATTACGGT | 1.05
TACGTAGCTT | 2.18
TGCTGTAGTT | 0.971

Sequence | switch fluorescence ratio
CATACTTCTT | 1.05
TTACCGAGAC | 3.71
TTTAGGTGCC | 1.1
ATGTAATAGA | 0.977
TAACGTCTGG | 1.02
CTCCAACTAA | 1.16
TACTTGTGAA | 1.04
CGCCCCCGGA | 1.04
ATTAGTAATG | 1.05
TCGTCGCTTC | 1.27
ACCAACATTT | 1.09
TCATTAACCG | 0.979
GCGGGTTGTA | 1
TGTTCACATG | 1.01
CGTTTCCGG | 0.951
AATCGACTGC | 1.02
GGTAATCCGA | 0.975
CTGGGTAAAT | 0.978
AGGATTGAGG | 0.959
TCCACGAAGC | 1.13
GGGTATCCCG | 0.977
GGGATTTCGT | 0.987
ACTGTCGAAC | 1.05
CGTGGAATTC | 1.05
ACGTTTGTCA | 1.02
GGTCTCCGA | 1.01

Sequence | switch fluorescence ratio
ATCGTGACAT | 0.992
AATGTACCAA | 1.06
TCTGCCATGC | 2.1
AGGTTTAGCT | 1.01
TAAAAGTGT | 0.952
ATCGATAAAC | 1.01
CGTTGTTTTT | 1.01
GGGCGAATCT | 0.997
ACAAAACACC | 1.3
CGTGGATATT | 1.04
GCGGATAAGT | 0.928
GGACAAGTGG | 1.28
CCCAAGCGTC | 1.49
TCCAACGGT | 1.09
AAGTACGAGA | 1.26
CGAGCGTCTG | 0.951
ATCCTTTTTG | 1.02
TACGTCTGGC | 0.992
CTATCAGCTG | 1.02
TTTGTAGAT | 1.03
GGTCGCCCGG | 0.988
TCCTTAAGTA | 1.03
TCTCCACTCA | 1.14
ATGACACGTA | 1.19
GAAATTAGGC | 0.96
GCTCCGTCCG | 1.3

Sequence | switch fluorescence ratio
ACAAGATTTC | 0.98
GATCTCGCTT | 1
GGGATTCCTT | 0.998
ACGTGTGAAA | 0.936
GCAGCCTAAT | 0.998
ATATTGTGCT | 0.96
GAAATAATGA | 1
ATTTAGACGG | 1.04
ATCAGGGCAC | 1.04
TGTCCGGCGC | 1.06
ATACTTTCTG | 1.01
CTCCCATGGG | 0.997
AGGCTAATT | 1.04
AAAGTGCAA | 1.05
CAATTTATGT | 0.939
ATGTAACGGT | 1.01
GAACTTCGAA | 1.02
TCGCTACATT | 0.991
GCTAGGTTGC | 0.983
GCAGGCATCG | 0.974
TTCGTTGGTT | 1.03
CTGAAAACG | 1.04
GCGATCGGAT | 0.998
TCGGCTATAA | 1.53
TGACGAGCAG | 1.04
AAAAATACGA | 1.04

Sequence | switch fluorescence ratio
TTGGGCGGGC | 0.966
GCATTAGTCA | 1.04
TTATAAGACG | 0.961
GATAGCAGTT | 1.01
TACCTAGGTT | 1
AAGGACTGGT | 0.98
GCAGAAGGCG | 0.978
CAGTGGCCCT | 1
GGTACGAGAT | 1.02
TTGACCAGAA | 1.02
GGAGGTCAAG | 0.992
GCGGTTTAGC | 0.99
ATTGCTACAA | 1.01
TATACCACCG | 1.12
GGGCGTGTAT | 1.03
TGCATGGACC | 1.03
TGATGTCAAA | 0.955
TAGCCAGCGC | 1.09
TATTATCTGT | 0.962
AGCGCTCATG | 1.03
TCGACAGTCG | 1.01
AGGGTGAGTT | 1.02
TCACAGCGGA | 1.04
CGTGTATAT | 0.995
TTTTAAAATC | 0.98
CCAAGAGTTT | 1.02

Sequence | switch fluorescence ratio
TCAAGCTGTT | 0.965
TTTATAGAA | 0.997
ACGTAGCTA | 2.67
GGATGACGG | 0.949
AGGAAACTGC | 0.973
CTCGCGATTA | 1.65
CGATAGAAAA | 0.973
ACCGTCTATC | 1.09
CACTTACAG | 1.16
CGAAAAGCTG | 1
ATGGGTATGG | 1.07
CTGGGGGGAA | 1.05
GCGTCGAGGG | 0.987
AGCGGGGAGC | 1.04
ACTTACTCAC | 1.48
TATGACGATC | 1.03
AAATCAGGAC | 1.05
GAATAAAGGA | 1
TGCTGGACCA | 0.977
CTGAGAGTAG | 1.02
GTGGTGTGCA | 0.946
GTAAGAGTGG | 0.942
TAGAAAGGT | 1.06
TAATAAACGT | 1.05
TTTTGCTATC | 1.33
AACCTTGGGT | 1.02

Sequence | switch fluorescence ratio
GAAGCTATCG | 1.13
TCTTTAAACC | 1.06
CGAAGCCATT | 1.12
AAAGTTAGGC | 0.956
TGTGATACCG | 1.1
GTACGAGCGT | 1.01
GGACCTGGCC | 0.998
TGAGAGGGGA | 0.965
CTCTCATTGG | 1.01
GTGTTCTATT | 0.972
AGACACAATA | 1.2
TCGAAGAAAG | 0.957
GAGAATAACG | 0.991
GATGACGGCC | 1.21
GTTTACTAAG | 1.02
TCTCTGCCGA | 1.28
TTGTTTGTCA | 0.977
ACATCACTTT | 1.32
TTATGCACAT | 1.06
TGGCCAAAAC | 1.07
AGAAGTTCCA | 0.991
GTAATTTTAG | 0.971
CGGACACAGC | 1.14
AGTTCTGATG | 1.01
TCGCCAATTC | 3.46
CGGTGTGTCG | 0.943

Sequence | switch fluorescence ratio
ATGACGAACA | 1.08
TTCCACTGGA | 1.03
TACGCAACCC | 2.85
GCGCAAATCT | 1.01
TGGAGTCTGT | 0.952
TACCCATAAT | 0.966
TTGAAAACAA | 0.979
TAGCTAGAGG | 0.992
GACGGGGGA | 1.17
ATAAACAGTG | 0.999
TTGGCCGTAA | 1.11
TGGCCCCAGG | 2.88
ATATAGAT | 0.984
ACAGTGGTAA | 1.01
TAGGCTCCGG | 0.99
GTTCAGGAAA | 1.07
CACAGATAGC | 1.02
GGATCGCGGT | 1.06
CGTAGAATTG | 0.957
